Measurements from the supplement of paper PMC12632987.
Over roughly 2,300 sequences, “median log2 fold change of GCK-ALFA target abundance (FLAG IP / Myc IP barcode read proportion)” has its median near 0.095; the lowest 2% begin near -0.47. This is one part of the list.

B1: LC3A_3_1739 (protein)
chain: MEEKLAKARKELEALGLSPEVVAAALKVVEALLKKGYEKAVEVLLKLLKELKDLPDEILLAMLDDILARVETEDLSEEEVIKYIKEEARIARSEAEIEEL
B2: LC3A_free_8_2505 (protein)
chain: MNQKVRDTAIKGLEELEKELVEKAKELGLSRLDILELELTIGSVIAEVFSLDDASPEEILETTKEGLEEIIELAKELSEELAELAKKKSEEILKELESLL
B3: LC3A_147_421 (protein)
chain: YKATVTVDLIVKGDAEEALAAIEELAKELLEKGADKVTIERERDEETGEIYVTVTIEATKETLEEAEAFANEVIDKFDELEERYSDKLKIGAISVEIEKA
B4: LC3A_28_1007 (protein)
chain: MSLIEKTKEEIKKALEQAEKGEDAFLEIEIPSTATKEEVEEVLKLIEEAAKEVSKLEGVKLYVVIDDSGSPEIHDLVVDRADEIEEKYPNVSVIIAYDDK
B5: LC3A_127_204 (protein)
chain: EEEELLKELLEKVEEASKYVDKIPEEGEEAREKAIELLEEAIKLAKKIPELKETVKDLEQALELVKKLKDLSPAEQEEAIDHILMILEGVAIEIESALLK
B6: LC3A_28_695 (protein)
chain: SALDAQLAAAAAAVAAAVAAGEDALVEFTVTGEATQEDIDRLLAGVEALAKQMAATGKLHVVVDLDGDVSQELQDRLADGLDALEAKYPHLSAVIALDED
B7: LC3A_3_1848 (protein)
chain: MEEIIEETLKLLEELGRSEEVIEAARRLLEELAKKGYLEAAKTLLEKLKELKDVSDEILLAMLEELLRKVTEENLSEEEAIKAIKEEARTALNESEIIEL
B8: LC3A_3_1765 (protein)
chain: MEEVVEAVRKRLAAAGADEETIKTAAEAVRLLLERGLEETAKKFVEALLELLAKSKELAADLAKEVLEILKTSKDSPEEIAKKVEEAIRVFLLEAEIEEL
B9: LC3A_free_46_2430 (protein)
chain: YVVEIDIDLLHEDKEVLEKAVKEIVEKIKEIAKKHNAEIKIEVEISKLEDGSYFARIKATVTVDTKETAEKIANEIIDAVDEIAEKYDVSYIISVEISEK
B10: LC3A_3_1537 (protein)
chain: MDEEIEETLEELREAGKSEETLEAFREAAELLKEKGYEEALRTFIEEMRKLIDLPDELLLDFAREVLELVKTEDISEEELIERIREIARTIRSEAEIEEL
B11: LC3A_free_39_2205 (protein)
chain: SEEAYKALEEELKKLEPYASKEAREAFLKAIREVGFSPEQIKAIAEELKKAKEAGADMEEILREAVKIIREGLAAGLSPEEIAKRVLEEIRDHINLIPLD
B12: LC3A_3_1556 (protein)
chain: MEELLEETLEELKAAGASEEVLEAAREAFEALRERGFEEAARTLAEEVREMLDLPDELLLDFLEEVRELVETEDLDEEEVRKEIRRIARTTRNEGEIIEL
B13: LC3A_28_650 (protein)
chain: MTIEEQLERALEEAERAREEGKPTVITLTVDGNATQEDIEKVIETMERIARILEDIPGSAIIVDVTGGVPQEYIDKLAEKGEEIEEKYPNVTVILALDEE
B14: LC3A_132_254 (protein)
chain: SEELLEKALKELKELLDKIVADLKAGKDPWPTINKLYELALKYAEKLSLEETEKLAEESEKYAEELFAKELDPNDEEARRTLDIVEMLLESVLIEKELRS
B15: LC3A_6_2066 (protein)
chain: KLYKITIDILLKSEKPEEALKVAKEIAEEIRKFAEEINKEYNGAVKKLEIKIEEIDGEVFLTIEIVAEEKAVNEIIDKVDEIVEENKEYVAASMISVEEL
B16: LC3A_127_194 (protein)
chain: ELKEVLERLIELARRAAELLDDPDADPEEVRRLLEELLEAAREAVKLDPSTQPLLDDAEEALALFEQLLAAPPEEREALREQLILLLDGIEIEAESKLLE
B17: LC3A_132_294 (protein)
chain: QEKKAEEILKKIKELIEKAKENIDDEEKVQKYLEEIEKLIKKAEKELTNEQLAKVMEEVEELLDELSRKFLEAGKEELAEEADGLRIEAASLRLRAEEKL
B18: LC3A_28_880 (protein)
chain: MTVEEALERAEREVEAAVAAGEEALVEVDISEPVTVEEAEELMRRLEELVELAAGLPRLSIVIDLSEVESQEALDIIADGAERLEERYPHVTVIIALADR
B19: LC3A_free_8_2552 (protein)
chain: DSQQFAQQVSAIIDQAEAQITAILTAAGADRLQQLDLELGFGEILAEVVSLSDKSKEEQVAAVTAGLAEVRELAKSLPPEAQAQVNAVIDQAEAEIKALL
B20: LC3A_3_1792 (protein)
chain: AEAEIEALLAELAAAGKSPETLEAVRRAATALAERGYEEALRTFLEELRRLRDAPDEILLWLAEEVLRLVEEEDLDEEELRERIRELARLAENEAEIEEL
B21: LC3A_28_831 (protein)
chain: SELEERIKKFLEEVKEAAEKGEEATFTLTIKSTDSLEEVKKAAEALKEAAKIASGKFNASIIIDLDGKIPQEKLDVLTDTADEVEKEYPNVNVIIALPEE
B22: LC3A_3_1682 (protein)
chain: MDELVEEVIKTAKENGLSEEALKALKKLLELLKERGFEEAIKTLLEELKKLKDIPSEIILAMFEDLLYLVETEDLSEEEIVEKIKEEAEIARNEKEIEEL
B23: LC3A_132_269 (protein)
chain: SEELLEEAKEELFALLDEIVALLAAGQDPWPAIKRLDEKAEEYAKKLSLEDTEELVEEAKAYAEERFAARLDPADAEARRVLDHVEMLLDSVLIEKELAD
B24: LC3A_28_731 (protein)
chain: SELEESIEKALKEAREAAARGEEAVITIKVPGTATEEDIEKVIETMEEIAEITKDLKSTSIIVDLDGKVPQEYIDKLLDRAEEIEKKYPNVTVILALDEE
B25: LC3A_free_39_2223 (protein)
chain: SEEEIEKLIKEVAKESGIDYEELKKKIEEIKEVGKLSNEQILEIVKAILEAVKAGADAKEILEEALKLTKELVAAGKSPEEIKEEILELIEDYRNLVPLD
B26: LC3A_3_1612 (protein)
chain: MEELIEEQLKKLKEAGFSEEVIEKAREVMEALAEKGFEEAIKTLTEELLKLKDVDPELIIETLDEILRKVTEEDLSEEEVIEFIKEEFRVTELESEIIEL
B27: LC3A_28_828 (protein)
chain: SNIEERIKKFKEEAAKAKAAGESATLTVTITSSDTLEEVEKIMKAIEEEAEKLKDVPNISIIIDFDGKISQEKLNKVTEAADRIEKKYPNINVIIALPED
B28: LC3A_free_46_2340 (protein)
chain: MTLEIEVDILADTEEKAKKAVEELVKKFKELAKKYNAKLEIEVEIEKLEDGSYYARIKATFSGLTKEQAEEIENEVADKVEEISEKYGVAAILSSEIIED
B29: LC3A_3_1614 (protein)
chain: LEELREKALKALKEAGYSEETLELFEEVVDLLEEKGYYEAAKTFLEEMLELKDLSEEIIRALLEEVLRLVKEEDLSEEELTERIKELARIARSEQEIIEL

The binders below were run against MAP1LC3A, Q9H492 (assay: median log2 fold change of GCK-ALFA target abundance (FLAG IP / Myc IP barcode read proportion) (log2 ratio); each designed protein is fused to an ALFA-tag nanobody in HEK293 cells to bring the named protein to FLAG-tagged glucokinase (GCK); Myc marks an untargeted standard; higher = target protein stabilised (more abundant)). Conditions: target protein: 3xFLAG-MCP-GCK-ALFA reporter; HEK293 landing pad (RPLP).
Method in brief: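 Sequencing of reverse-transcribed, amplified circular RNA barcodes from anti-FLAG and anti-Myc immunoprecipitates provided the readout for an ALFA-nanobody-fused binder library recombined into HEK293 landing-pad cells. Those cells were induced with 2 μg mL^−1 doxycycline, transfected with a plasmid expressing a FLAG-tagged target and a Myc-tagged standard, and lysed after 48 h. Target abundance is the per-binder median log2 ratio of FLAG to Myc barcode read proportions. Only barcodes at a proportion of ≥10^−7 in both replicates and binders with ≥3 barcodes per replicate were kept, with a 10^−6 pseudocount added before the two replicates were pooled.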

Row | Binder | median log2 fold change
1 | B1 | 0.29
2 | B2 | -0.246
3 | B3 | -0.0507
4 | B4 | -0.353
5 | B5 | 0.109
6 | B6 | -0.089
7 | B7 | -0.359
8 | B8 | 0.172
9 | B9 | -0.11
10 | B10 | 0.354
11 | B11 | 0.0943
12 | B12 | -0.176
13 | B13 | 0.152
14 | B14 | -0.669
15 | B15 | -0.173
16 | B16 | 0.113
17 | B17 | 0.0447
18 | B18 | -0.0649
19 | B19 | 0.158
20 | B20 | 0.195
21 | B21 | 0.0765
22 | B22 | 0.0992
23 | B23 | 0.0564
24 | B24 | -0.289
25 | B25 | -0.0674
26 | B26 | 0.108
27 | B27 | 0.145
28 | B28 | -0.131
29 | B29 | 0.256
